# Data: the supplement of paper PMC8728848
# The other results are listed elsewhere or left out.
# B1: LecB PA14 (Pseudomonas aeruginosa) (protein)
# chain: MATQGVFTLPANTQFGVTAFANSAGTQTVNVQVNNETVATFTGQSTNNAIIGSKVLNSGGGGKVQILVSVNGRSSDLVSAQVILANELNFALVGSEDSTDNDYNDAVVVINWPLG
# What was measured:
# Assay in all cases: glycan array binding signal (z-score within array); higher = stronger binding
# Settings in all cases: glycan notation: IUPAC condensed, linker removed
# [1] = molecular target: Fuc(a1-2)Gal(b1-4)GlcNAc(b1-3)Gal(b1-4)GlcNAc(b1-3)Gal(b1-4)GlcNAc
# How it was run: (§1)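 The Consortium for Functional Glycomics database supplied 3228 glycan arrays, of which those lacking an available protein sequence were dropped. The binding signal, a within-array Z-score, was averaged across arrays of the same protein sequence and across linkers. Negative scores can be read as non-binding.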
# [2] = molecular target: Fuc(a1-2)Gal(b1-4)GlcNAc(b1-3)GalNAc
# How it was run: as §1
# [3] = molecular target: Fuc(a1-2)Gal(b1-4)GlcNAc(b1-3)[Fuc(a1-2)Gal(b1-4)GlcNAc(b1-6)]GalNAc
# How it was run: as §1
# [4] = molecular target: Fuc(a1-2)Gal(b1-4)GlcNAc(b1-3)[Fuc(a1-3)[Gal(b1-4)]GlcNAc(b1-6)]Gal(b1-4)Glc
# How it was run: as §1
# [5] = molecular target: Fuc(a1-2)Gal(b1-4)GlcNAc(b1-6)GalNAc
# How it was run: as §1
# [6] = molecular target: Fuc(a1-2)Gal(b1-4)GlcNAc6S
# How it was run: as §1
# [7] = molecular target: Fuc(a1-2)Gal(b1-4)[Fuc(a1-3)]GlcNAc
# How it was run: as §1
# [8] = molecular target: Fuc(a1-2)Gal(b1-4)[Fuc(a1-3)]GlcNAc(b1-2)Man(a1-3)[Fuc(a1-2)Gal(b1-4)[Fuc(a1-3)]GlcNAc(b1-2)Man(a1-6)]Man(b1-4)GlcNAc(b1-4)[Fuc(a1-6)]GlcNAc
# How it was run: as §1
# [9] = molecular target: Fuc(a1-2)Gal(b1-4)[Fuc(a1-3)]GlcNAc(b1-2)[Fuc(a1-2)Gal(b1-4)[Fuc(a1-3)]GlcNAc(b1-4)]Man(a1-3)[Fuc(a1-2)Gal(b1-4)[Fuc(a1-3)]GlcNAc(b1-2)Man(a1-6)]Man(b1-4)GlcNAc(b1-4)GlcNAc
# How it was run: as §1
# [10] = molecular target: Fuc(a1-2)Gal(b1-4)[Fuc(a1-3)]GlcNAc(b1-3)Gal(b1-4)[Fuc(a1-3)]GlcNAc
# How it was run: as §1
# [11] = molecular target: Fuc(a1-2)Gal(b1-4)[Fuc(a1-3)]GlcNAc(b1-3)Gal(b1-4)[Fuc(a1-3)]GlcNAc(b1-3)Gal(b1-4)[Fuc(a1-3)]GlcNAc
# How it was run: as §1
# [12] = molecular target: Fuc(a1-2)Gal(b1-4)[Fuc(a1-3)]GlcNAc(b1-3)GalNAc
# How it was run: as §1
# [13] = molecular target: Fuc(a1-2)Gal(b1-4)[Fuc(a1-3)]GlcNAc(b1-3)[Neu5Ac(a2-6)Gal(b1-4)GlcNAc(b1-6)]Gal(b1-4)Glc
# How it was run: as §1
# [14] = molecular target: Fuc(a1-2)Gal3S(b1-4)GlcNAc
# How it was run: as §1
# [15] = molecular target: Fuc(a1-2)Gal6S(b1-3)GlcNAc
# How it was run: as §1
# [16] = molecular target: Fuc(a1-2)Gal6S(b1-3)GlcNAc6S
# How it was run: as §1
# [17] = molecular target: Fuc(a1-2)Gal6S(b1-4)Glc
# How it was run: as §1
# [18] = molecular target: Fuc(a1-2)Gal6S(b1-4)Glc6S
# How it was run: as §1
# [19] = molecular target: Fuc(a1-2)[Gal(a1-3)]Gal
# How it was run: as §1
# [20] = molecular target: Fuc(a1-2)[Gal(a1-3)]Gal(b1-3)GalNAc
# How it was run: as §1
# [21] = molecular target: Fuc(a1-2)[Gal(a1-3)]Gal(b1-3)GalNAc(b1-3)Gal(a1-4)Gal(b1-4)Glc
# How it was run: as §1
# [22] = molecular target: Fuc(a1-2)[Gal(a1-3)]Gal(b1-3)GlcNAc
# How it was run: as §1
# [23] = molecular target: Fuc(a1-2)[Gal(a1-3)]Gal(b1-3)GlcNAc(b1-2)Man(a1-3)[Fuc(a1-2)[Gal(a1-3)]Gal(b1-3)GlcNAc(b1-2)Man(a1-6)]Man(b1-4)GlcNAc(b1-4)GlcNAc
# How it was run: as §1
# [24] = molecular target: Fuc(a1-2)[Gal(a1-3)]Gal(b1-3)GlcNAc(b1-2)Man(a1-3)[Fuc(a1-2)[Gal(a1-3)]Gal(b1-3)GlcNAc(b1-2)Man(a1-6)]Man(b1-4)GlcNAc(b1-4)[Fuc(a1-6)]GlcNAc
# How it was run: as §1
# [25] = molecular target: Fuc(a1-2)[Gal(a1-3)]Gal(b1-3)GlcNAc(b1-3)GalNAc
# How it was run: as §1
# [26] = molecular target: Fuc(a1-2)[Gal(a1-3)]Gal(b1-3)GlcNAc(b1-6)GalNAc
# How it was run: as §1
# [27] = molecular target: Fuc(a1-2)[Gal(a1-3)]Gal(b1-4)Glc
# How it was run: as §1
# [28] = molecular target: Fuc(a1-2)[Gal(a1-3)]Gal(b1-4)GlcNAc
# How it was run: as §1
# [29] = molecular target: Fuc(a1-2)[Gal(a1-3)]Gal(b1-4)GlcNAc(b1-2)Man
# How it was run: as §1
# [30] = molecular target: Fuc(a1-2)[Gal(a1-3)]Gal(b1-4)GlcNAc(b1-2)Man(a1-3)[Fuc(a1-2)[Gal(a1-3)]Gal(b1-4)GlcNAc(b1-2)Man(a1-6)]Man(b1-4)GlcNAc(b1-4)GlcNAc
# How it was run: as §1
# [31] = molecular target: Fuc(a1-2)[Gal(a1-3)]Gal(b1-4)GlcNAc(b1-2)Man(a1-3)[Fuc(a1-2)[Gal(a1-3)]Gal(b1-4)GlcNAc(b1-2)Man(a1-6)]Man(b1-4)GlcNAc(b1-4)[Fuc(a1-6)]GlcNAc
# How it was run: as §1
# [32] = molecular target: Fuc(a1-2)[Gal(a1-3)]Gal(b1-4)GlcNAc(b1-3)GalNAc
# How it was run: as §1
# [33] = molecular target: Fuc(a1-2)[Gal(a1-3)]Gal(b1-4)GlcNAc(b1-3)[Fuc(a1-2)[Gal(a1-3)]Gal(b1-4)GlcNAc(b1-6)]GalNAc
# How it was run: as §1
# [34] = molecular target: Fuc(a1-2)[Gal(a1-3)]Gal(b1-4)GlcNAc(b1-6)GalNAc
# How it was run: as §1
# [35] = molecular target: Fuc(a1-2)[Gal(a1-3)]Gal(b1-4)[Fuc(a1-3)]Glc
# How it was run: as §1
# [36] = molecular target: Fuc(a1-2)[Gal(a1-3)]Gal(b1-4)[Fuc(a1-3)]GlcNAc
# How it was run: as §1
# [37] = molecular target: Fuc(a1-2)[Gal(a1-3)]Gal(b1-4)[Fuc(a1-3)]GlcNAc(b1-3)GalNAc
# How it was run: as §1
# [38] = molecular target: Fuc(a1-2)[Gal(a1-4)]Gal(b1-4)GlcNAc
# How it was run: as §1
# [39] = molecular target: Fuc(a1-2)[GalNAc(a1-3)]Gal
# How it was run: as §1
# [40] = molecular target: Fuc(a1-2)[GalNAc(a1-3)]Gal(b1-3)GalNAc(a1-3)[Fuc(a1-2)]Gal(b1-4)GlcNAc
# How it was run: as §1
# [41] = molecular target: Fuc(a1-2)[GalNAc(a1-3)]Gal(b1-3)GalNAc(b1-3)Gal(a1-4)Gal(b1-4)Glc
# How it was run: as §1
# [42] = molecular target: Fuc(a1-2)[GalNAc(a1-3)]Gal(b1-3)GlcNAc
# How it was run: as §1
# [43] = molecular target: Fuc(a1-2)[GalNAc(a1-3)]Gal(b1-3)GlcNAc(b1-2)Man(a1-3)[Fuc(a1-2)[GalNAc(a1-3)]Gal(b1-3)GlcNAc(b1-2)Man(a1-6)]Man(b1-4)GlcNAc(b1-4)GlcNAc
# How it was run: as §1
# [44] = molecular target: Fuc(a1-2)[GalNAc(a1-3)]Gal(b1-3)GlcNAc(b1-2)Man(a1-3)[Fuc(a1-2)[GalNAc(a1-3)]Gal(b1-3)GlcNAc(b1-2)Man(a1-6)]Man(b1-4)GlcNAc(b1-4)[Fuc(a1-6)]GlcNAc
# How it was run: as §1
# [45] = molecular target: Fuc(a1-2)[GalNAc(a1-3)]Gal(b1-3)GlcNAc(b1-3)GalNAc
# How it was run: as §1
binder,measurement,setting,value
B1,glycan array binding signal (z-score),[1],0.727
same,glycan array binding signal (z-score),[2],-0.189
same,glycan array binding signal (z-score),[3],-0.645
same,glycan array binding signal (z-score),[4],0.049
same,glycan array binding signal (z-score),[5],2.52
same,glycan array binding signal (z-score),[6],-0.469
same,glycan array binding signal (z-score),[7],0.404
same,glycan array binding signal (z-score),[8],-0.289
same,glycan array binding signal (z-score),[9],-0.392
same,glycan array binding signal (z-score),[10],10.2
same,glycan array binding signal (z-score),[11],7.29
same,glycan array binding signal (z-score),[12],-0.206
same,glycan array binding signal (z-score),[13],-0.255
same,glycan array binding signal (z-score),[14],-0.574
same,glycan array binding signal (z-score),[15],0.146
same,glycan array binding signal (z-score),[16],1.31
same,glycan array binding signal (z-score),[17],1.07
same,glycan array binding signal (z-score),[18],-0.548
same,glycan array binding signal (z-score),[19],-0.002
same,glycan array binding signal (z-score),[20],-0.726
same,glycan array binding signal (z-score),[21],-0.475
same,glycan array binding signal (z-score),[22],-0.06
same,glycan array binding signal (z-score),[23],-0.734
same,glycan array binding signal (z-score),[24],0.714
same,glycan array binding signal (z-score),[25],-0.161
same,glycan array binding signal (z-score),[26],-0.543
same,glycan array binding signal (z-score),[27],-0.202
same,glycan array binding signal (z-score),[28],-0.7
same,glycan array binding signal (z-score),[29],-0.152
same,glycan array binding signal (z-score),[30],-0.678
same,glycan array binding signal (z-score),[31],0.375
same,glycan array binding signal (z-score),[32],-0.743
same,glycan array binding signal (z-score),[33],-0.457
same,glycan array binding signal (z-score),[34],-0.301
same,glycan array binding signal (z-score),[35],-0.072
same,glycan array binding signal (z-score),[36],-0.365
same,glycan array binding signal (z-score),[37],0.321
same,glycan array binding signal (z-score),[38],2.07
same,glycan array binding signal (z-score),[39],0.581
same,glycan array binding signal (z-score),[40],-0.321
same,glycan array binding signal (z-score),[41],-0.581
same,glycan array binding signal (z-score),[42],-0.497
same,glycan array binding signal (z-score),[43],-0.053
same,glycan array binding signal (z-score),[44],0.154
same,glycan array binding signal (z-score),[45],-0.47
